# Reference: the BET-seq Pho4 binding data (Le et al. 2018)
# The list shows a part of the results. Values were computed here from the reads of four pooled replicates and scatter widely.
# Target: T1, Pho4 (S. cerevisiae) (UniProt P07270)
# T1 sequence: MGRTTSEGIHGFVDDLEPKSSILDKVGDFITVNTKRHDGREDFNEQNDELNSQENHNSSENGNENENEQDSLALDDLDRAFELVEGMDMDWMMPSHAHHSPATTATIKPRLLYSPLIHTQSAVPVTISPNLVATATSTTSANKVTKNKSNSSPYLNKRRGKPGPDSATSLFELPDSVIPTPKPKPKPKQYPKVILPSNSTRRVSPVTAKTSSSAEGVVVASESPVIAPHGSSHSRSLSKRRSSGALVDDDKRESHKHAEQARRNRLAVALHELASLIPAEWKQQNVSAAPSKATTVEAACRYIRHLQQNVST
# Experiment: relative binding free energy (BET-seq); higher = weaker binding
# Details: reference: library average
row,Sequence,relative binding free energy
1,GGTTCCACGTGGGTGA,-0.04 kcal/mol
2,TGCCTCACGTGTTGTG,0.07 kcal/mol
3,TGTATCACGTGTAAGC,0.39 kcal/mol
4,TTAGCCACGTGGATGG,-0.11 kcal/mol
5,CGGTGCACGTGTGTTA,0.02 kcal/mol
6,CTAGTCACGTGGGTAG,0.03 kcal/mol
7,TCACGCACGTGTGTGG,-0.04 kcal/mol
8,GGTAACACGTGAGCGG,0.32 kcal/mol
9,CGGTGCACGTGTTGTC,0.02 kcal/mol
10,ATGTACACGTGAGCGG,0.33 kcal/mol
11,GTATTCACGTGACGGT,0.2 kcal/mol
12,TGATGCACGTGATGGC,0.02 kcal/mol
13,AGTAGCACGTGTGTGC,-0.1 kcal/mol
14,TAAGGCACGTGGGATG,-0.11 kcal/mol
15,TGGCGCACGTGTCGGT,-0.04 kcal/mol
16,ATGTTCACGTGGGGAA,0.01 kcal/mol
17,AGTGACACGTGTCGGT,-0.05 kcal/mol
18,GAGTACACGTGATGGA,0.33 kcal/mol
19,CGGGTCACGTGTGTCT,0.22 kcal/mol
20,AAGGTCACGTGCTTTT,0.14 kcal/mol
21,TAGTCCACGTGTATGG,-0.08 kcal/mol

row,Sequence,relative binding free energy
1,TCTGACACGTGGGGCG,-0.01 kcal/mol
2,GGGACCACGTGCGGGG,-0.19 kcal/mol
3,ACCGTCACGTGGGTGT,-0.11 kcal/mol
4,GAGGTCACGTGGGACT,0.04 kcal/mol
5,GGCTGCACGTGCGTGA,-0.02 kcal/mol
6,GTCCTCACGTGTGTGT,0.28 kcal/mol
7,GGGGCCACGTGTGGGT,0.15 kcal/mol
8,TTTTCCACGTGTTGGT,0.16 kcal/mol
9,GTATTCACGTGTTCCG,0.34 kcal/mol
10,TGTGACACGTGTTCTG,-0.04 kcal/mol
11,GTTCTCACGTGGTGTC,0.26 kcal/mol
12,GGCATCACGTGATGGG,0.33 kcal/mol
13,GAGGCCACGTGGGTGA,-0.2 kcal/mol
14,GGGCGCACGTGGGGGT,-0.17 kcal/mol
15,CGGTACACGTGGGGGC,-0.01 kcal/mol
16,TTAATCACGTGGAGTC,0.2 kcal/mol
17,TTTTACACGTGTGGAG,0.19 kcal/mol
18,GGTGTCACGTGGTATC,0.04 kcal/mol
19,TGATTCACGTGGAGTC,0.25 kcal/mol
20,ACTCTCACGTGGGTGG,0.11 kcal/mol
21,ATTGTCACGTGGGCAT,0.02 kcal/mol

row,Sequence,relative binding free energy
1,GTGGTCACGTGGAGCT,0.21 kcal/mol
2,GCGTTCACGTGTGGCG,0.37 kcal/mol
3,GGGTCCACGTGTTAGT,0.18 kcal/mol
4,AAAGGCACGTGTGACG,0.04 kcal/mol
5,GTAGACACGTGGGTAT,-0.11 kcal/mol
6,GTTTGCACGTGTCGCG,0.07 kcal/mol
7,TGTGGCACGTGTGGAC,0.04 kcal/mol
8,GTTCGCACGTGAATGG,0.25 kcal/mol
9,AGTAACACGTGATTGG,-0.06 kcal/mol
10,GGTGGCACGTGGCCGG,-0.18 kcal/mol
11,TTAAACACGTGTATGG,-0.16 kcal/mol
12,TTGTGCACGTGAAGCG,0.15 kcal/mol
13,AGGTTCACGTGGAGGT,0.2 kcal/mol
14,GGGTCCACGTGAGGGA,0.15 kcal/mol
15,TTGAGCACGTGGGGTT,-0.1 kcal/mol
16,ACGAGCACGTGATGGG,-0.05 kcal/mol
17,CGTTACACGTGAGGAG,0.4 kcal/mol
18,GTGATCACGTGGTTAG,0.09 kcal/mol
19,ACGTGCACGTGTGTGA,-0.03 kcal/mol
20,GGGTCCACGTGCAGTT,0.07 kcal/mol
21,AGGAGCACGTGGGGCG,-0.15 kcal/mol
